Data from PubChem BioAssay AID651711 (Broad Institute, 2012).
Out of some 350,000 compounds screened, about 180 (0.051%) were called active. Inconclusive results, whose numbers are uncertain, are shown with a selection of clear calls.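 Rule for the calls: active = mean replicate inhibition above about 25%, with every replicate also reaching it (limit read from the data, passing the limit was not always enough); inconclusive = only one of those two criteria met; inactive = neither criterion met.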 Some structures have more than one record in an assay (separate samples or runs), and their calls can disagree.

Molecular target: Protein disulfide-isomerase A6 (Homo sapiens) (UniProt Q15084)
UniProt Q15084, sequence (Q15084 whole entry, looked up): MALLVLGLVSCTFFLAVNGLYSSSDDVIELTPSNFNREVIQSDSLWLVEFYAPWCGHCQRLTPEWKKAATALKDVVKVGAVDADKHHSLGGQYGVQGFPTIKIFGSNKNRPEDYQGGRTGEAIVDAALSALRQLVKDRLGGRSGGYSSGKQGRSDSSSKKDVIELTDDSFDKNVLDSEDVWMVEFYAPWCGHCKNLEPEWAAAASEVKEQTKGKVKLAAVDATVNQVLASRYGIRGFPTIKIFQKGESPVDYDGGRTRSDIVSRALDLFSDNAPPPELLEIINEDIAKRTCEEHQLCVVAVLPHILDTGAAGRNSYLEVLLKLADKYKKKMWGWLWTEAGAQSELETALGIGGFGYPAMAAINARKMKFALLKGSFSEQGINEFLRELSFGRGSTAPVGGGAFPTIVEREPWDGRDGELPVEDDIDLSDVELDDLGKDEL
Assay: inhibitors of ERp5-driven insulin aggregation, primary screen, biochemical, turbidity, absorbance 650 nm, single point (AID 651711)
Settings: 90 min, at 9.99 µM, active compounds read high

| Structure (SMILES) | inhibition |
| --- | --- |
| Cc1ccccc1COc1ccc2oc(C)c(C(=O)O)c2c1 | inconclusive: 42.7% |
| Cn1c(=O)[nH]c(=O)c2c1nc(SCCO)n2CC(O)COc1ccccc1 (stereo not given) | inconclusive: 51% |
| CCN1[C@@H]2c3ccc(-c4ccccc4)c(=O)n3C[C@@H]2[C@@H](CO)[C@@H]1C(=O)NCC(F)(F)F | active: 37.3% |
| C[C@H]1CN([C@@H](C)CO)C(=O)c2cc(C#CCc3ccccc3)cnc2O[C@@H]1CN(C)Cc1ccc(C(=O)O)cc1 | inactive: -5.88% |
| CCOC(=O)C1(Cc2ccc(Cl)cc2)CCN(C(=O)c2sc(C)nc2C)CC1 | inconclusive: 47% |
| O=C(Cn1c2ccccc2c(=O)c2ccccc21)Nc1ccccc1F | inconclusive: 39.7% |
| CC1=NNC(=O)C1CCC(=O)N/N=C(\C)c1ccccc1 (stereo not given) | inconclusive: 34.4% |
| C[C@@H]1CN([C@H](C)CO)C(=O)Cc2cc(NS(=O)(=O)c3ccc(F)cc3)ccc2O[C@@H]1CN(C)S(=O)(=O)c1cn(C)cn1 | active: 26.9% |
| CC(=O)N1CCC2(CC1)CC(=O)c1cc(OCC(=O)N3CCCC3)ccc1O2 | inconclusive: 44.5% |
| O=c1c(Cc2ccc(F)cc2)c(O)ccn1CCCn1ccnc1 | inconclusive: 43.3% |
| O=C(CSC1=NCCS1)Nc1ccc(F)cc1 | inconclusive: 44.1% |
| CCOc1ccc(C(=O)N[C@H](C(=O)NNC(=O)c2cccs2)C(C)C)cc1 | inconclusive: 41.2% |
| CC(OC(=O)c1cc(-c2cccnc2)nc2ccccc12)C(=O)Nc1ccc2ccccc2c1 (stereo not given) | inconclusive: 48.2% |
| CN(C)C(=O)C[C@@H]1CC[C@@H]2[C@H](COc3ccc(NC(=O)C4CCCC4)cc3C(=O)N2C)O1 | inactive: -0.631% |
| CCOC(=O)C1CCCN(c2c(N3CCOCC3)c(=O)c2=O)C1 (stereo not given) | inconclusive: 47.6% |
| O=C(c1ccc(-c2ccccc2)cc1)N1CCN(c2ccccc2)CC1 | inconclusive: 26.9% |
| CN1CCN(C(=O)C[C@H]2CC[C@@H]3[C@H](COc4ccc(NC(=O)C5CCC5)cc4C(=O)N3C)O2)CC1 | inactive: -3.53% |
| C[C@H](CO)N1C[C@H](C)[C@@H](CN(C)S(=O)(=O)c2cn(C)cn2)Oc2ccc(NC(=O)c3ccncc3)cc2CC1=O | active: 64.6% |
| CCOc1cccc(-c2c(C(=O)N/N=C/c3ccc(C)o3)nnn2-c2nonc2N)c1 | active: 26.7% |
| O=C(N/N=C/c1ccco1)c1cc([N+](=O)[O-])cc([N+](=O)[O-])c1 | inconclusive: 52.9% |
| O=[N+]([O-])c1cc(C=Nc2ccc3ccccc3c2)ccc1Br | inconclusive: 45.6% |
| COCC(=O)N(C)C[C@@H]1Oc2cc(C#CC(C)(C)O)ccc2S(=O)(=O)N([C@H](C)CO)C[C@@H]1C | active: 61.3% |
| CCN(CC)c1ccc(/C=C(/C#N)C(=O)NCc2ccccc2)o1 | inactive: 0.429% |
| CC(OC(=O)c1ccc(O)cc1)C(=O)Nc1cc(C(F)(F)F)ccc1Cl (stereo not given) | inconclusive: 32.6% |
| Fc1ccccc1CSCc1nc2ccccc2[nH]1 | inconclusive: 45.8% |
| CCOC(=O)Oc1c(OC)cc(C(=O)O[C@@H]2C[C@@H]3CN4CCc5c([nH]c6cc(OC)ccc56)[C@H]4C[C@@H]3[C@H](C(=O)OC)[C@H]2OC)cc1OC | inconclusive: 36% |
| CC(=O)N1c2ccc(S(=O)(=O)N3CCC(C(=O)Nc4ncccc4C)CC3)cc2CC1C (stereo not given) | inactive: -12.1% |

| Structure (SMILES) | inhibition |
| --- | --- |
| CC(C)C(=O)NC(=S)Nc1ccccc1C(=O)Nc1ccccc1 | inconclusive: 45.8% |
| O=C(c1cc2ccccc2oc1=O)N1CCN(c2ccc(N3CCOCC3)nn2)CC1 | inconclusive: 51.1% |
| CCN(c1ccccc1)S(=O)(=O)c1cc(C(=O)Nc2ccc(F)c(F)c2)ccc1F | inconclusive: 34.5% |
| CO[C@@H]1CN(C)C(=O)c2cc(NC(=O)C3CCC3)ccc2OC[C@H](C)N(Cc2ccncc2)C[C@H]1C | inactive: 5.36% |
| COc1cc([N+](=O)[O-])cc(/C=N/NC(=O)Cn2nccc2C)c1O | inconclusive: 37% |
| COCCn1c(SCC(=O)NC2CCCC2)nc2cccnc21 | inconclusive: 38.5% |
| CCCNC(=O)N1C[C@@H]2[C@H](c3ccccc31)[C@@H](CO)N2Cc1ccc(OC)cc1 | inconclusive: 46.8% |
| c1ccc(CCNc2nc(-c3cccnc3)cs2)cc1 | inconclusive: 36.9% |
| O=C1NC(=O)/C(=C/c2ccccc2OCc2ccccc2)S1 | inconclusive: 28.2% |
| Cc1ccc2c(c1)c1c3n2CCN(C(=O)C2CC2)C3CCC1 (stereo not given) | inconclusive: 40.5% |
| C[C@@H]1CN([C@@H](C)CO)C(=O)c2cc(C#CC3(O)CCCC3)cnc2O[C@@H]1CN(C)C(=O)C1CCOCC1 | inactive: 4.5% |
| CCc1ccc(NC(=O)C2CCN(S(=O)(=O)c3cnc[nH]3)CC2)cc1 | inactive: 1.55% |
| Fc1ccc(Nc2ccc3ccccc3n2)c(F)c1 | inconclusive: 37.5% |
| COc1ccc(CN2CCN(C3CCC3)CC2CCO)c(C)c1C (stereo not given) | inconclusive: 34.4% |
| Cc1ccccc1CNC(=O)CCc1ccccc1 | inconclusive: 39.9% |
| COc1ccccc1CN(C)c1ccc(S(=O)(=O)N2CCN(C)CC2)cn1 | active: 31.5% |
| Cc1cc(C)c(NC(=O)C(C)c2cccc(C(=O)c3ccccc3)c2)c(C)c1 (stereo not given) | inconclusive: 44.4% |
| O=[N+]([O-])c1ccc(NC(=S)N2CCc3ccccc3C2)cc1 | inconclusive: 28.7% |
| COc1cc(CNCc2ccccn2)ccc1OCc1c(Cl)cccc1Cl | inconclusive: 37.6% |
| CO[C@H]1CN(C)C(=O)c2cc(NC(C)=O)ccc2OC[C@H](C)N(S(=O)(=O)c2cn(C)cn2)C[C@H]1C | inactive: 3.89% |
| CC(Oc1ccccc1)C(=O)NC1=NCCS1 (stereo not given) | inactive: 2.82% |
| O=C(CC1CC1)N1[C@@H](CO)[C@@H]2c3ccccc3N(S(=O)(=O)c3ccccc3)C[C@@H]21 | inconclusive: 46.2% |
| CC(C)NC(=O)Nc1ccc2c(c1)C(=O)N([C@H](C)CO)C[C@H](C)[C@@H](CN(C)C(=O)Cc1ccccc1)OCCCC[C@@H](C)O2 | inconclusive: 43.4% |
| C[C@@H]1CN([C@H](C)CO)C(=O)c2cccc(NS(=O)(=O)c3ccc(Cl)cc3)c2O[C@@H]1CN(C)Cc1ccc(C(F)(F)F)cc1 | active: 28.1% |
| CC(=O)Nc1ccc(-c2ccc(NC(C)=O)cc2)cc1 | inconclusive: 45.5% |
| CNC[C@H]1OCCCC[C@@H](C)Oc2ccc(N(C)C)cc2C(=O)N([C@@H](C)CO)C[C@H]1C | inactive: 0.253% |
| Cc1ccc(S(=O)(=O)N(CC(O)CN2CCOCC2)c2cccc([N+](=O)[O-])c2)cc1 (stereo not given) | active: 26.6% |

| Structure (SMILES) | inhibition |
| --- | --- |
| Cc1ccc(N=C2NC(=O)c3cccc([N+](=O)[O-])c32)cc1 | inconclusive: 38.8% |
| Cc1onc(-c2ccccc2)c1C(=O)c1c[nH]c(C(=O)NCc2ccccn2)c1 | inactive: 1.37% |
| CN(C)C(=O)c1ccc(-c2nnc(OCc3nc4ccccc4n3C)c3ccccc23)cc1 | inconclusive: 38.8% |
| C[C@H](CO)N1C[C@H](C)[C@@H](CN(C)S(=O)(=O)c2ccc(Oc3ccccc3)cc2)OCc2cnnn2CCCC1=O | active: 89.2% |
| Nc1ccc2nc(-c3ccc(Cl)cc3)[nH]c2c1 | inconclusive: 51.2% |
| Cc1cccc(Oc2ccc(NS(=O)(=O)c3ccc(C)c(C(=O)O)c3)cc2)c1 | active: 26.1% |
| O=S(=O)(N[C@H]1CC[C@H](CCn2cc(C3CC3)nn2)O[C@@H]1CO)c1ccc(Cl)cc1 | inactive: -3.05% |
| CC(=O)/C(=N/Nc1ccccc1)Sc1nnc(C(O)c2ccccc2)n1-c1ccccc1 (stereo not given) | inactive: 2.22% |
| CC(C(=O)NCC1(c2ccccc2)CCOCC1)N1CCOCC1 (stereo not given) | inconclusive: 41.2% |
| O=C(CN1CCCc2ccccc21)N/N=C/c1c(O)ccc2ccccc12 | inconclusive: 38.6% |
| Cc1[nH]n(-c2ccccc2)c(=O)c1/C=N/N1CCOCC1 | inconclusive: 34.4% |
| Cc1nnc(SCc2cccc([N+](=O)[O-])c2)s1 | inconclusive: 36.7% |
| CC(C)(C)n1cnc2cc(NCc3ccccc3O)ccc21 | inactive: 7.39% |
| NC(=S)N/N=C/c1cccc(/C=N/NC(N)=S)c1 | inconclusive: 39.1% |
| Cc1noc(NS(=O)(=O)c2ccc(NC(=O)c3cnc4scc(C)n4c3=O)cc2)c1C | inactive: 2.48% |
| CC(=O)Nc1ccc2c(c1)C(=O)N(C)[C@@H]1CC[C@@H](CC(=O)NCC3CC3)O[C@H]1CO2 | active: 70.9% |
| Cc1ccccc1C(=NCCCN(C)C)c1ccccc1C | inconclusive: 46.2% |
| COc1c(C)cc(C(=O)C2CCCN(C(=O)c3snnc3C)C2)cc1C (stereo not given) | inconclusive: 48.6% |
| COc1cccc(C(=O)Nc2cc(C)c3c(=O)oc4ccccc4c3n2)c1 | inconclusive: 47.5% |
| CS(=O)(=O)c1ccc2nc(NC(=O)c3ccc(NS(=O)(=O)c4ccc(F)c(F)c4)cc3)sc2c1 | inconclusive: 25.9% |
| CCOC(=O)N1CCN(C(=S)NC(=O)c2ccc(Br)cc2)CC1 | inactive: -1.37% |
| Cc1cc2occ(CC(=O)NNC(=O)c3ccccc3)c2cc1C | active: 66% |
| O=C(CCN1C(=O)/C(=C\c2ccccc2)SC1=S)NCCCN1CCOCC1 | active: 26.4% |
| O=C(Nc1ccc(C(=O)O)cc1)/C(=C\c1ccc2c(c1)OCO2)NC(=O)c1ccccc1 | inconclusive: 45.9% |
| COc1cccc2c1OCC(CN1CCN(CCC(C)C)C(CCO)C1)=C2 (stereo not given) | inactive: 1.31% |
| COc1cc(/C=C(\C#N)C(=O)Nc2ccc3c(c2)OCCO3)ccc1O | inconclusive: 25.3% |
